The list shows a part of the results.

The assay relates to T1, C. trachomatis L2/434/Bu expressing GFP (CTL2-GFP).
T1 construct: L2/434/Bu GFP intracellular growth in HeLa cells
Further details: species or system HeLa; C. trachomatis total inclusion area by high-content imaging, normalised to DMSO. The conditions noted are these: total inclusion area; 28.5 h, 10 µM; inhibitor. An outline of the steps: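 Host cell viability was gauged from Hoechst-stained nuclei counts, while chlamydial growth was taken from total inclusion area and inclusion number per well. Cells were fixed and imaged by high-content microscopy once bulk GFP and resorufin fluorescence had been measured.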
Take `Cn1cc(C(O)CNC(=O)NCCc2csc3ccccc23)cn1` (stereo not shown) [CBK305219]: the “% of control remaining” value was determined as 54.7024.
Consider `CC(C)(C)NC(=O)CN1CCC(c2ccccc2F)CC1` [CBK283499], for which the “% of control remaining” value is reported as 118.887.
As for `COc1ccc(-n2c(SCC(=O)O)nnc2-c2cccs2)cc1` [CBK265636], the figure is 91.36; as for `O=S(=O)(NCc1ccc(CNS(=O)(=O)c2ccccc2)cc1)c1ccccc1` [CBK265471], 96.9682.
Regarding `CCn1ncc(S(=O)(=O)N2CCCC(c3cccc(Cc4cccc(C)c4)n3)C2)c1C` (stereo not shown) [CBK286244], the “% of control remaining” value is 122.236.
Consider `Cc1ccc2[nH]c(Cc3ccc(NC(=O)CCC4C(=O)Nc5ccccc54)cc3)nc2c1` (stereo not shown) [CBK285824], for which the “% of control remaining” value was found to be 106.737.
As for `Nc1ccc(C(=O)Nc2ccc(Nc3cc(-c4ccco4)ncn3)cc2)cc1` [CBK091099], the figure is 63.0463; as for `O=C(O)CCCc1nc(-c2ccccn2)no1` [CBK010880], 48.0495.
Then `c1ccc(N2CCN(c3cccc(-c4ccc5c(c4)OCO5)n3)CC2)nc1` [CBK036851], with 115.136; and `COc1ccc(/C=C(/NC(=O)/C=C/c2ccccc2)C(=O)O)cc1` [CBK264996], with 103.801.
As to `CCn1cc(NC(=S)Nc2sc3c(c2C(=O)OC)CCC(C)C3)c(C(N)=O)n1` (stereo not shown) [CBK267032], the “% of control remaining” value is on record as 99.9836.
Turning to `NNC(=O)c1cc(-c2ccccc2)nc2ccc(Br)cc12` [CBK261762], the “% of control remaining” value was determined as 82.777.
As to `CN1CCC(N(C)Cc2cc(Cl)ccc2[N+](=O)[O-])CC1` [CBK261576], the “% of control remaining” value was determined as 110.887.
Then `O=C(c1nc(=O)[nH][nH]1)N1CCN(Cc2ccc(C(F)(F)F)cc2)CC1` [CBK298312], with 101.016; and `O=C(Nc1ccc(Cl)c(Cl)c1)N1CCN(c2n[nH]c(=O)[nH]c2=O)CC1` [CBK297514], with 104.943; and `O=C(O)C1CCN(C(=O)Nc2ccccc2Cl)CC1` [CBK161407], with 81.2456.
As for `CCc1[nH]nc2c1C1(CN3CCC1CC3)C(C#N)=C(N)O2` (stereo not shown) [CBK267454], the figure is 88.7019; as for `CCN(CC)C(=O)CN(CCc1ccc(OC)c(OC)c1)C(=O)NCc1c(Cl)cccc1Cl` [CBK158743], 117.241.
For `CCOC(=O)c1cccc(-c2ccc(F)cc2F)n1` [CBK149245], the “% of control remaining” value is given as 101.849.
On to `COc1ccccc1-c1ccc(NC(=O)CCn2cnc3ccccc3c2=O)cc1` [CBK285711], for which the “% of control remaining” value came out at 114.091.
Regarding `Cc1cccc(C(=O)N/N=C/c2ccoc2)c1O` [CBK018727], the “% of control remaining” value worked out at 78.5458.
Consider `O=C(c1cnn(-c2ccc(Cl)cc2Cl)c1)N1CCOCC1c1ncon1` (stereo not shown) [CBK304231], for which the “% of control remaining” value was 49.4956.
As to `CCc1c(CC)c(OC(=O)C(N)C(C)C)c2ccccc2c1OC` (stereo not shown) [CBK016484C], the “% of control remaining” value worked out at 84.5186.
Turning to `CCOc1cc(S(=O)(=O)NCCCn2ccnc2)ccc1Cl` [CBK269874], the “% of control remaining” value came to 66.328.
Regarding `Cc1nc2c(oc3nc(-c4ccoc4)c4c(c32)CC(C)(C)OC4)c(-c2ccccc2)c1C(=O)O` [CBK265286], the “% of control remaining” value was 123.568.
With `Cc1nc2c(c(=O)[nH]1)CN(Cc1ccc(-c3ccccc3)cc1)CC2` [CBK283952], the “% of control remaining” value is 88.7856.
Then `COc1ccc(OCCN2CCC(C(=O)c3ccc(F)cc3)CC2)cc1` [CBK149136], with 65.6695; and `O=c1c2ccccc2nc(COc2ccccc2)n1O` [CBK288482], with 42.8416.
Regarding `COc1ccc(-n2c(=O)[nH]cc(C(=O)Nc3cccc(Cl)c3C)c2=O)cc1` [CBK287549], the “% of control remaining” value came to 99.1917.
For `O=C(COc1ccc2ccccc2c1)N[C@@H](C(=O)O)c1ccc(O)cc1` [CBK286571], the “% of control remaining” value was 69.7473.
With `CCCc1cnc(N2CCOCC2)nc1` [CBK028742], the “% of control remaining” value was 65.6528.
Take `Cc1cc(C)c2nonc2c1S(=O)(=O)NCCN1CCCCC1CO` (stereo not shown) [CBK306966]: the “% of control remaining” value is 94.7018.
For `N=c1n(CCN2CCCCC2)c2ccccc2n1CC(O)c1cccs1` (stereo not shown) [CBK262908C], the “% of control remaining” value was 126.451.
Take `COc1cc(C=O)ccc1Oc1nnnn1-c1ccc(C(=O)O)cc1` [CBK267071]: the “% of control remaining” value is on record as 106.547.
For the compound `CCCC(=O)c1ccc(S(=O)(=O)N2CCCN(Cc3ccc(OC)c(F)c3)CC2)cc1` [CBK062926], the “% of control remaining” value is recorded as 90.7404.
For `CCc1nc2ccc(C(=O)Nc3ccc(OC)c(OC)c3)cn2c1N(C)C(=O)Nc1ccccc1OC` [CBK145875], the “% of control remaining” value is recorded as 86.0017.
For the compound `NC(=S)c1ccc2c(c1)OCO2` [CBK022803], the “% of control remaining” value came out at 75.5944.
On to `CCOC(=O)c1ccc(N2C(=O)CC(N3CCN(c4ccc(S(C)(=O)=O)cc4)CC3)C2=O)cc1` (stereo not shown) [CBK268721], for which the “% of control remaining” value worked out at 89.0034.
Then `CCC1(C)CCCN(Cc2nnnn2-c2ccc(S(C)(=O)=O)cc2)C1` (stereo not shown) [CBK306180], with 74.7605.
On to `O=C(O)C12CC3CC(C(=O)O)(C1)CC(C(=O)O)(C3)C2` [CBK263442], for which the “% of control remaining” value is 105.164.
Regarding `O=C(Nc1nc2nccc(-c3ccccc3)n2n1)c1cccc([N+](=O)[O-])c1` [CBK265414], the “% of control remaining” value is listed as 108.242.
Consider `NCC1CCCN1C(=O)c1ccc(Oc2cccc(Br)c2)nc1` (stereo not shown) [CBK304200], for which the “% of control remaining” value is on record as 25.5988.
As for `Cc1nc(COc2ccccc2)sc1C(=O)N1CCC(C(N)=O)CC1` [CBK202603], the figure is 80.3977; as for `c1csc(-c2nnc(C3CCN(Cc4ccsc4)CC3)o2)c1` [CBK285309], 81.0442; as for `COc1ccc2c(c1)C1(CC(=O)N(CCC3CCCCC3)C1=O)C(=O)N2C` (stereo not shown) [CBK075147], 78.4911.
Then `CC(O)c1ccc(-c2ccc(CNCCCN3CCOCC3)o2)cc1` (stereo not shown) [CBK278178C], with 105.475; and `CCC(=O)Nc1nc2ccccc2n1CCCN(C)C` [CBK263492], with 94.974; and `COc1ccc([C@@]23CC[C@@H](NC(=O)Nc4ccon4)C[C@@H]2N(C)CC3)cc1OC` [CBK051069T], with 62.3812.
Consider `C[C@@H]1CN(c2ccc(C(F)(F)F)c(OCc3ccccc3)n2)CCN1` [CBK003987A], for which the “% of control remaining” value was determined as 26.4719.
Consider `Cc1n[nH]c(C)c1CNC(=O)C1CCN(Cc2ccc(F)cc2)CC1` [CBK282502], for which the “% of control remaining” value came to 119.612.
As for `COCCN(Cc1cc2ccc(C)cc2nc1O)S(=O)(=O)c1ccccc1` [CBK269216], the figure is 117.975; as for `Oc1ccccc1/C=N/c1ccc(Cc2ccc(/N=C/c3ccccc3O)c(O)c2)cc1O` [CBK261156], 84.5136; as for `CC(NS(=O)(=O)c1ccccc1Cl)C(=O)N1CCCC1` (stereo not shown) [CBK305994], 46.2477.
For `COc1cc(CN2CCN(C/C=C/c3ccccc3)CC2)cc(Br)c1O` [CBK261582], the “% of control remaining” value was 99.1535.
As for `O=C(NC(Cc1ccccc1)C(=O)O)c1ccc(C#CC2(O)CCCCC2)cc1` (stereo not shown) [CBK267702], the figure is 100.681; as for `OC(CNCCNc1nccc(C(F)(F)F)n1)Cn1ccc2ccccc21` (stereo not shown) [CBK074642], 90.4833; as for `CCCCSc1nc(N)cc(N2CCC(N3CCOC3=O)CC2)n1` [CBK306974], 94.7658.
As for `CC(=O)Nc1cccc(C(=O)N2CCN(Cc3ccc4c(c3)OCO4)CC2)c1` [CBK270031], the figure is 80.322.
`O=C(CCn1c(C(F)F)cc2cccnc21)N1CCOCC1` [CBK284956]: the “% of control remaining” value was 110.64.
Regarding `O=C(CCn1c(C(F)F)cc2cccnc21)NCc1cccnc1` [CBK285066], the “% of control remaining” value is 87.1425.
Regarding `CN(C)C(=O)c1ccc(-c2ccc3c(c2)COC(C2CCN(C(=O)CC4CCCCC4)CC2)O3)cc1` (stereo not shown) [CBK149763], the “% of control remaining” value is on record as 88.9356.
Consider `N#CC1=C(N)Oc2cc(N)ccc2C1c1ccc(-c2ccccc2)cc1` (stereo not shown) [CBK261605], for which the “% of control remaining” value is 91.8479.
Then `Cc1cc(NC(=O)CCCN2C(=O)c3cccc4cccc(c34)C2=O)n(-c2ccccc2)n1` [CBK265874], with 81.8783; and `CS(=O)(=O)Nc1nnc(SCC(=O)Nc2cccc([N+](=O)[O-])c2)s1` [CBK045536], with 95.4981; and `CN1CCN(c2ccc([N+](=O)[O-])c(NCc3ccccc3)c2)CC1` [CBK042199], with 78.6749.
Turning to `COc1ccc(Br)cc1C(=O)Nc1cc(-c2nc3ccccc3[nH]2)ccc1Cl` [CBK264112], the “% of control remaining” value is given as 110.834.
`CN(CCO)c1ccc(C(=O)N2CCC(N3CCOCC3)CC2)cn1` [CBK306899]: the “% of control remaining” value came to 88.7529.
In the case of `O=C(CC1=C(O)C(=O)c2ccccc2C1=O)c1ccccc1` [CBK262002], the “% of control remaining” value is 94.1886.
Consider `Cc1ccc(Nc2nc(N/N=C/c3ccccc3)nc(N3CCC(Cc4ccccc4)CC3)n2)cc1` [CBK262296], for which the “% of control remaining” value is 83.9635.
Consider `Cc1nn(-c2ccccc2)c(C)c1C1CC(=O)Nc2c1cnn2C(C)C` (stereo not shown) [CBK287925], for which the “% of control remaining” value turned out to be 110.472.
For `COc1cc(NC(=O)c2ccc3c(c2)C(=O)N(c2c(C)cc(C)cc2C)C3=O)c(C(=O)O)cc1OC` [CBK264074], the “% of control remaining” value is recorded as 107.123.
As to `O=C(O)CC1Sc2ccccc2NC1=O` (stereo not shown) [CBK261308], the “% of control remaining” value amounted to 101.006.
Regarding `Cc1nn(CC(=O)N2CCN(C)CC2)c(=O)c2ccccc12` [CBK304221], the “% of control remaining” value is reported as 34.8357.
Regarding `CCCn1ncc(CN2CCC(c3cc4cccnc4[nH]3)CC2)c1C` [CBK284949], the “% of control remaining” value came to 73.2272.
As for `CC(C)(C)OC(=O)COc1cc2oc(=O)cc(-c3ccccc3)c2cc1Cl` [CBK263729], the figure is 107.77.
In the case of `COC(=O)c1nn(C(=O)N(C)C)c(C)c1Br` [CBK005077], the “% of control remaining” value was determined as 62.9265.
Take `Cn1c(=O)c(C(=O)Nc2ccc(Cl)cc2)cc2cccnc21` [CBK287741]: the “% of control remaining” value is on record as 102.815.
As to `O=C(Nc1nnc(-c2ccncc2)o1)c1ccc(Cl)cc1Cl` [CBK287433], the “% of control remaining” value came out at 108.302.
On to `COC(Cc1nc2ccccc2s1)C(=O)O` (stereo not shown) [CBK265806], for which the “% of control remaining” value was found to be 132.807.

(Values after PMC12040169 (PLOS Biology, 2025).)
